Among all 350,000 compounds or so, about 31,000 (8.9%) were called active. This list was built around the results that the source calls inconclusive (neither active nor inactive); the mix of calls is not that of the screen. Calls come from the whole dose curve; as a rule, active = well fitted inhibition curve with a large enough effect; inconclusive = small, poorly fitted or top-dose-only effect; inactive = no such curve, though single readings can be large or run the other way. Potencies of inconclusive entries are doubtful fits and often do not repeat.
Molecular target: Histone-lysine N-methyltransferase EHMT2 (Homo sapiens) (UniProt Q96KQ7)
Test: qHTS Assay for Inhibitors of Histone Lysine Methyltransferase G9a; note: nearly all actives have a fitted effect of over 75% in size
Conditions: G9a H3K9 monomethylation, AlphaScreen, 2 h; activity, negative = inhibition: at 59 µM (top of the series) unless noted
In short: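 Using a bead-based AlphaScreen, monomethylated H3K9 product from 2 h room-temperature reactions (G9a 20 nM, peptide 500 nM, SAM 20 uM) was detected with 0.5 ug/mL rabbit anti-H3K9me1 antibody.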
% is set by controls: 0 for no effect and ±100 for the full control effect; potency is the fitted concentration of half-maximal effect; tags give direction and shape of the fitted curve.

Chain of UniProt Q96KQ7 (Q96KQ7 whole entry, looked up): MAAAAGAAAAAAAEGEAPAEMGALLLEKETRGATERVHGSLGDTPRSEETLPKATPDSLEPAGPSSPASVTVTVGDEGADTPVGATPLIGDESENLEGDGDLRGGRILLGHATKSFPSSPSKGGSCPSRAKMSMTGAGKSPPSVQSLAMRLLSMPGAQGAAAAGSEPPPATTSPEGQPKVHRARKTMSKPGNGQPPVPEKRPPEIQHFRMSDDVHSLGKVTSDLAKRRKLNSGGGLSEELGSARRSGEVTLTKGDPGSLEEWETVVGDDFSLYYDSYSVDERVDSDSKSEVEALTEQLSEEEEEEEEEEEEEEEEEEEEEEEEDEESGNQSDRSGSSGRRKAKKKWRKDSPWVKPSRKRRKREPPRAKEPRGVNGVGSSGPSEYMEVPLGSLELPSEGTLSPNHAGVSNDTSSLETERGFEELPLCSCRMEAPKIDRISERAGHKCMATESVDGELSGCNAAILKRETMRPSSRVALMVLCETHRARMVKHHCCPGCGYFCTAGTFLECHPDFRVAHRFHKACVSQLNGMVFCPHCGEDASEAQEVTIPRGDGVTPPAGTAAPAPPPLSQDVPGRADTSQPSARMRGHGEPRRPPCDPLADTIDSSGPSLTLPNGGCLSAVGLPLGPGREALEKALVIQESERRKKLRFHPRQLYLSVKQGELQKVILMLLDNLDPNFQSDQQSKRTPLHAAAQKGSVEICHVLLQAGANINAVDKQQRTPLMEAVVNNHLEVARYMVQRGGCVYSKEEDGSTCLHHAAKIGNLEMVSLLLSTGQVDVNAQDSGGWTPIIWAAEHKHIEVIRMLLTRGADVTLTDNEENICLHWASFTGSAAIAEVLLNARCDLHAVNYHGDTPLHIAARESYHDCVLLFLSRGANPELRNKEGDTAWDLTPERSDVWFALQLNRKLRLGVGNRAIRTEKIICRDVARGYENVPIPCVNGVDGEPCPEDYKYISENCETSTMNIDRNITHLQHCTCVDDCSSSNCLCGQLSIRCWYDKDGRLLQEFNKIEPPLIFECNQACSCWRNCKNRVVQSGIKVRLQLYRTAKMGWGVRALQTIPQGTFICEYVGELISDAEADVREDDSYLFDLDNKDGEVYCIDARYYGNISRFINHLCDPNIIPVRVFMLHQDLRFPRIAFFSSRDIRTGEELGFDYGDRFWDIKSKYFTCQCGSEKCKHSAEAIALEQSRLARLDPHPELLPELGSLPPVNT

Row | Structure (SMILES) | activity, negative = inhibition | Potency
1 | CCCCC(=O)Nc1cc(NC(=O)CC)ccc1Cl | inactive: 11.8% [at 102 µM] | –
2 | CCCc1cc(=O)[nH]c(SCC(=O)OCc2ccccc2)n1 | – | inconclusive: 28.2 µM [inhibitor, single point]
3 | CCOC(=O)c1scc(-c2ccc(C)cc2)c1S(=O)(=O)N1CCN(c2ccccc2)CC1 | inactive: -25.4% | –
4 | CCc1cccc(CC)c1NC(=S)NCC(c1cccnc1)N1CCOCC1 (stereo not given) | inactive: 18.6% [at 102 µM] | –
5 | Cc1cccc(Cn2c(SCC(=O)Nc3ccccc3)nc3c2c(=O)[nH]c(=O)n3C)c1 | – | inconclusive: 35.5 µM [inhibitor, single point]
6 | NC(=O)c1c(NC(=O)CSc2nnc(-c3ccco3)n2N)sc2c1CCCC2 | – | inconclusive: 2.82 µM [inhibitor, partial curve, poor fit]
7 | CN(C)CCNC(=O)c1ccc2c(=O)n(Cc3ccc(Cl)cc3)c(=S)[nH]c2c1 | – | inconclusive: 56.2 µM [inhibitor, partial curve, poor fit]
8 | Oc1oc(-c2cccc3ccccc23)nc1/C=N/c1nccs1 | – | inconclusive: 79.4 µM [inhibitor, single point]
9 | COc1ccc(-c2noc(CSc3nc4ccccc4c(=O)n3-c3ccc(C)cc3)n2)cc1 | – | inconclusive: 89.1 µM [inhibitor, single point]
10 | COc1ccc(S(=O)(=O)NCC2(N3CCOCC3)CCCCC2)cc1OC | inactive: -7.47% [at 102 µM] | –
11 | O=C(Nc1nnc(S(=O)(=O)N2CCCCC2)s1)c1cccc(Br)c1 | inactive: -37.6% [at 102 µM] | –
12 | CCOc1ccc(C(=O)C(C)OC(=O)c2nc(Cl)ccc2Cl)cc1 (stereo not given) | inactive: 30.7% [at 102 µM] | –
13 | Cc1ccc2nc(SCC(=O)NCc3ccccc3Cl)nc(=O)n2c1 | inactive: 24.7% [at 2.33 µM] | –
14 | Cn1c(NC(=O)c2cc(Br)ccc2Cl)cc(=O)n(C)c1=O | – | inconclusive: 89.1 µM [inhibitor, single point]
15 | CC1CCCCN1C(=O)c1cc2ccccc2cc1O (stereo not given) | – | inconclusive: 79.4 µM [inhibitor, single point]
16 | CCCCn1c(=O)c2ccccc2n2c(=S)[nH]nc12 | – | active: 1.26 µM
17 | O=C(O)c1ccc(N/N=C/c2ccc(C(F)(F)F)cc2)cc1 | – | active: 35.5 µM
18 | COc1ccc(OC(=O)c2ccc(OC)c(S(=O)(=O)N3CCOCC3)c2)cc1 | – | inconclusive: 63.1 µM [inhibitor, single point]
19 | COc1ccc(NC(=O)C2CCCCN2S(=O)(=O)c2ccc(F)cc2)cc1 (stereo not given) | – | inconclusive: 35.5 µM [inhibitor, partial curve, poor fit]
20 | COc1ccc(Nc2cc(C)c3cc(NC(=O)COc4cccc(C)c4)ccc3n2)cc1 | – | inconclusive: 28.2 µM [inhibitor, partial curve]

Reference: PubChem BioAssay AID504332 (National Center for Advancing Translational Sciences (NCATS), 2011)
